{"source": "the RNAGym collection of RNA variant scans (doi:10.7554/elife.90254)", "parents": {"B1": {"name": "OR4K15 (parent)", "chain": "GUUAACGGUCAUAGGCCAUGGAAACUAGGAGCACCAUUUCGCUGCCAGUGAAGAAAUGAACAAAGAAAAUCUGGGCCAGGCAGGCAUCAAAAGAAAUAGUCUUGCGCUCAACCAGAAAGUCUGUAAUCAUUUUAAGGGUA"}}, "note": "The source gives no read counts; variants with many changes may rest on few reads."}
{"variants_of": "B1", "assay": "self-cleavage, relative activity (ratio to wild type); higher = more cleavage; in vitro, sequencing; the parent is a self-cleaving ribozyme"}
{"variant": "A47U A64U A111G", "self-cleavage": 0.01}
{"variant": "G20A U26C A36U U49G A59G", "self-cleavage": 1.04}
{"variant": "A11G U49C U102A", "self-cleavage": 1.07}
{"variant": "U3C A11G U26A", "self-cleavage": 0.7}
{"variant": "A22G G44A A56U", "self-cleavage": 1.03}
{"variant": "U37C U57C A91G", "self-cleavage": 0.36}
{"variant": "A54G A62G C76U A95G A135G U139A", "self-cleavage": 0.03}
{"variant": "A60G A68G C81A U102A A114U", "self-cleavage": 0.02}
{"variant": "A13G C46U A52C A55G A90G U100C", "self-cleavage": 1.6}
{"variant": "A5G A30U U37C A135U", "self-cleavage": 0.88}
{"variant": "U57C A94G G106A", "self-cleavage": 0.04}
{"variant": "A60G A69G U130C", "self-cleavage": 0.5}
{"variant": "A52G U87C U132C", "self-cleavage": 2.51}
{"variant": "U37C A63G A67G A68G A126G U132C", "self-cleavage": 0.42}
{"variant": "A5G U49A A51G A126G", "self-cleavage": 2.03}
{"variant": "A11G A30G U37C A51U U130C", "self-cleavage": 0.71}
{"variant": "A11G A54G A118G", "self-cleavage": 0.92}
{"variant": "A23G A54G A64G U108C", "self-cleavage": 0.02}
{"variant": "A30G U37C A47G", "self-cleavage": 1.36}
{"variant": "U9C A18U U49A A59G A60G", "self-cleavage": 0.61}
{"variant": "A30U A82G A90G U108C A114G", "self-cleavage": 0.01}
{"variant": "A62G A92G A116G G137A", "self-cleavage": 0.84}
{"variant": "U43C A60G A111G A140G", "self-cleavage": 0.03}
{"variant": "U37C A47U A110G", "self-cleavage": 0.06}
{"variant": "U38C A63G G106A", "self-cleavage": 0.02}
{"variant": "U9C C16G A24U U38C A90U A114G", "self-cleavage": 0.87}
{"variant": "U38C A52G A56G U97A A114U", "self-cleavage": 0.12}
{"variant": "A11G A23G A67G U124C", "self-cleavage": 0.47}
{"variant": "U2A U19A A125G", "self-cleavage": 0.57}
{"variant": "U39C A86G A89G A126G U127C", "self-cleavage": 0}
{"variant": "A59G A78G A82U A111G", "self-cleavage": 0.01}
{"variant": "A24G A33G A51G A60G U103C", "self-cleavage": 0.24}
{"variant": "U124C U131A G137C", "self-cleavage": 1.2}
{"variant": "A30G A59U A64G", "self-cleavage": 1.46}
{"variant": "A11U A27G A55G U87C A90G A92U", "self-cleavage": 0.18}
{"variant": "A27G U43C A47G U70C", "self-cleavage": 0.14}
{"variant": "G7A A24G A52G U108A A111C", "self-cleavage": 0.02}
{"variant": "A69U U103C U108C U120C", "self-cleavage": 0}
{"variant": "U43C A51U A69U A92G", "self-cleavage": 1.68}
{"variant": "U57C U127G U131C", "self-cleavage": 1}
{"variant": "U2C A23C A64G U100C", "self-cleavage": 1.83}
{"variant": "U43C A51G A114U", "self-cleavage": 0.06}
{"variant": "U37C A67G A94U", "self-cleavage": 1.04}
{"variant": "U43C A51G U87A A117G", "self-cleavage": 2}
{"variant": "A114G U131C U132G", "self-cleavage": 0.11}
{"variant": "A30G A89G U120C U124C", "self-cleavage": 0.29}
{"variant": "U26C C40U U43A A51G U100C", "self-cleavage": 1.56}
{"variant": "A47G U70A A94U", "self-cleavage": 1.11}
{"variant": "U19C A24C A68G A116G", "self-cleavage": 0.13}
{"variant": "A30G A52G U57C A116G", "self-cleavage": 0.56}
{"variant": "U43C A55G C61G A116G U120A", "self-cleavage": 0.11}
{"variant": "G7A A23G U37C", "self-cleavage": 1.39}
{"variant": "A11U A55G A96U", "self-cleavage": 2.15}
{"variant": "A24G U39A U87C", "self-cleavage": 1.34}
{"variant": "A64G A91U U103C", "self-cleavage": 0.76}
{"variant": "A60G A82U U87C", "self-cleavage": 0.3}
{"variant": "U12C A67U U72C", "self-cleavage": 0.76}
{"variant": "U39A G48A A51G A134G", "self-cleavage": 1.18}
{"variant": "A22G U26C A56G A114G", "self-cleavage": 0.49}
{"variant": "A27G U37C U39A U49C A69G A90G", "self-cleavage": 0.96}
{"variant": "U26C A51G A78U", "self-cleavage": 0.3}
{"variant": "U43A G115U A117G", "self-cleavage": 0.09}
{"variant": "A63U A66G U131C", "self-cleavage": 1.98}
{"variant": "A30G U87C A96U A118G", "self-cleavage": 0.38}
{"variant": "U9C A18G U43C", "self-cleavage": 0.69}
{"variant": "U43C A47G A125G U131C U133C", "self-cleavage": 0.2}
{"variant": "A30G U87G A89U", "self-cleavage": 1.11}
{"variant": "U38C A89C U102C", "self-cleavage": 2.48}
{"variant": "A89C A92G U122A", "self-cleavage": 1.72}
{"variant": "A47G U57C U132C", "self-cleavage": 0.74}
{"variant": "A13G A54G U108C", "self-cleavage": 0.13}
{"variant": "A13U A78U G104A", "self-cleavage": 0.01}
{"variant": "U37C A54G A68G U103G U133A", "self-cleavage": 0.09}
{"variant": "U37C U57C G79U", "self-cleavage": 0.15}
{"variant": "U38C C45A A52G U100C", "self-cleavage": 1.29}
{"variant": "A69G U103C A114G U120C", "self-cleavage": 0.02}
{"variant": "A82G A89G U139A", "self-cleavage": 0.55}
{"variant": "A24G A52G A64G", "self-cleavage": 1.54}
{"variant": "G1A A33G A51U A86G U97C U103C", "self-cleavage": 0.57}
{"variant": "A11G A78G U108C", "self-cleavage": 0.04}
{"variant": "A33G A59G A95G", "self-cleavage": 1.74}
{"variant": "A13U A24G A96G U127C", "self-cleavage": 0.58}
{"variant": "U43C C76U A118G", "self-cleavage": 0.02}
{"variant": "U9C A68C A86G U108C", "self-cleavage": 0.01}
